# Data reported in paper PMC4336329 (PLoS ONE, 2015).
# The campaign covered roughly 310,000 compounds. About 14,000 (4.5%) showed an effect of 50% or more. The effect is printed as a negative number. The list shows a part of the results.
# Target: human ether-à-go-go-related gene (hERG) potassium channel (human, UniProt Q12809)
# Assay: primary screen, population patch clamp on CHO cells stably expressing hERG
# 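Further: peak tail current of the secondary pulse compared with the same well before compound.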
# Sequence of human ether-à-go-go-related gene (hERG) potassium channel (Q12809 whole entry, looked up): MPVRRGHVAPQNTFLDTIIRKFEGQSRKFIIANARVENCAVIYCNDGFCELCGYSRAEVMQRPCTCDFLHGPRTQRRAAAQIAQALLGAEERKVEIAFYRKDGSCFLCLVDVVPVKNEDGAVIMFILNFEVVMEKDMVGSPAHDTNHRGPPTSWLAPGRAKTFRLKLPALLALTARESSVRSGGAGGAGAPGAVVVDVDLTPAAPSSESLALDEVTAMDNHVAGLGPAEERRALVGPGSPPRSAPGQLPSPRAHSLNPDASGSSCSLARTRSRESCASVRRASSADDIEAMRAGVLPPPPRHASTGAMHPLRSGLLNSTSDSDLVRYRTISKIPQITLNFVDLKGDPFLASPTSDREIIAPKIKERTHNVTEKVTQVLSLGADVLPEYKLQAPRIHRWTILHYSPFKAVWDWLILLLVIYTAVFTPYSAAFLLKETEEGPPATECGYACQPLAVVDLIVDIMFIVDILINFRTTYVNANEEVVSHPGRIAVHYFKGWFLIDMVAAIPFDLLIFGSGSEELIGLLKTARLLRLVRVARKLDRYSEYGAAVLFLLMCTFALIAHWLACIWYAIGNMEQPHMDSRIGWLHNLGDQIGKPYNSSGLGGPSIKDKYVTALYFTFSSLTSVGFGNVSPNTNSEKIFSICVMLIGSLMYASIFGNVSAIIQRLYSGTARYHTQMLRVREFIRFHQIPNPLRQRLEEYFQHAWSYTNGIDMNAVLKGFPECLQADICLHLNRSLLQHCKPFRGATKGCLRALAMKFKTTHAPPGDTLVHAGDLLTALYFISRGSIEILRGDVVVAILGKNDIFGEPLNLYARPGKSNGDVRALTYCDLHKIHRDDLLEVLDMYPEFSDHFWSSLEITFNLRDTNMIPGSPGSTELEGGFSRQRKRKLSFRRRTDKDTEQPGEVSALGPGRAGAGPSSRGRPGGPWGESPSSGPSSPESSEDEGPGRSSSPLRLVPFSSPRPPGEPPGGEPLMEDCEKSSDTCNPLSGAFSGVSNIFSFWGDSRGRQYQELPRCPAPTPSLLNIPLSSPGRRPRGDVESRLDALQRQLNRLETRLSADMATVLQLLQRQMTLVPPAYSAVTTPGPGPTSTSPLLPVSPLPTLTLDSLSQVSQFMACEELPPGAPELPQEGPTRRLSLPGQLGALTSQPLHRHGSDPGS
row,SMILES,"hERG current change (%, negative = inhibition) at 10uM"
1,Cc1ccc(Nc2nnc(SCC(=O)NCCN3C(=O)CSC3=O)s2)cc1C,-14.7%
2,Cc1nc2c(C)cccc2c2c1CCS2,0.813%
3,CCOC(=O)N1CCN(C(=O)CN(c2ccc(C)c(C)c2)S(=O)(=O)c2ccccc2)CC1,-26.5%
4,CC(=O)N1c2ccc(S(=O)(=O)NCCC(=O)Nc3ccc(C)cn3)cc2CC1C (centres unmarked),11.6%
5,O=C1OC(c2ccc(Cl)cc2)=N/C1=C\c1cccnc1,11.8%
6,Oc1cccc(NC(=S)Nc2cccnc2)c1,10.9%
7,COC(=O)c1nn(-c2ccccc2)c(Cl)c1/C=N/OCc1ccc(Cl)cc1Cl,20.6%
8,Cc1ccc(Sc2cc(C(=O)NCCN(C)C)c3ccccc3n2)cc1,-93.9%
9,O=C(Nc1ccc(-n2cnnn2)cc1)C1CCCN1C(=O)Nc1ccc(Br)cc1 (centres unmarked),-79.9%
10,O=C(CCn1nc(-c2ccccc2)ccc1=O)N1CCCC1,-45%
11,COc1ccc(CN2C(=O)c3cccnc3C2=O)cc1S(=O)(=O)NCc1ccccc1,-13.1%
12,Cc1ccc(N2C(=O)C3C4C=CC(CNC(=S)N5CCN(c6cccc(C)c6)C(C)C5)(O4)C3C2=O)cc1 (centres unmarked),-11%
13,Cc1ccn(CCC(=O)N2CCCC(CCC(=O)N3CCN(c4ccccn4)CC3)C2)n1 (centres unmarked),3.74%
14,CCOC(=O)N1CCN(CCC(=O)Nc2cc(OC)ccc2OC)CC1,-2.7%
15,NC(=O)c1cc(-c2csc(-c3cccnc3)n2)ccc1O,5.27%
16,c1ccc(N=C(c2cccs2)N2CCOCC2)cc1,17.4%
17,COc1ccccc1C(=O)OC(C)CN1CCN(C)CC1.Cl (centres unmarked),8.56%
18,COc1ccc(C(=O)Nc2ccc(NC(=O)c3ccco3)c(Cl)c2)cc1OC,3.19%
19,Cn1c(SCC(=O)N2c3ccccc3Sc3ccccc32)nc2ccccc21,-4.56%

row,SMILES,"hERG current change (%, negative = inhibition) at 10uM"
1,CCc1ccc(NC(=O)COC(=O)CCc2nc3cc(S(=O)(=O)N(CC)CC)ccc3n2C)cc1,-60%
2,O=C(NCCN1CCOCC1)Nc1ccc(F)cc1,37.3%
3,CC1(C)CCc2cc(-c3ccn(S(=O)(=O)c4ccccc4Cl)n3)ccc2O1,9.53%
4,CCOC(=O)C(C)Sc1nc2c(c(=O)[nH]c(=O)n2C)n1C/C=C(/C)Cl (centres unmarked),-72.8%
5,CCOC(=O)C1=C(COC(=O)c2ccccc2OC(F)F)NC(=O)NC1C (centres unmarked),5.86%
6,Cn1ccc(NC(=O)c2ccc(Cl)cc2Cl)n1,7.79%
7,CCOc1ccc(C(=O)CCNC(Cc2cnc[nH]2)C(=O)O)cc1 (centres unmarked),-1.69%
8,CCOc1ccccc1/C=N/NC(=O)c1cccc(Cl)c1,5.46%
9,O=c1[nH]c(=O)n(-c2ccccc2F)c(O)c1C=NCCC1=CCCCC1,25.6%
10,Cc1cccc(-n2c(SCC(=O)N(C)C3CCS(=O)(=O)C3)nc3ccccc3c2=O)c1C (centres unmarked),-2.19%
11,O=C(COc1ccc(S(=O)(=O)N2CCOCC2)cc1)NCC1CCCO1 (centres unmarked),-15.1%
12,Cc1cc(C(=O)CSc2ncccn2)c(C)n1-c1cccc(F)c1,-5.48%
13,C=CCN1C(=O)C2(OCCCO2)c2ccccc21,4.84%
14,COc1ccc(CN2CCN(C3CCC3)CC2CCO)cc1C (centres unmarked),8.14%
15,COc1ccccc1NS(=O)(=O)c1cc(NC(=O)C(C)C)ccc1N1CCCCC1,4.42%
16,O=C(CNC(=O)c1ccc2c(c1)OCO2)N/N=C(Br)/C=C/c1ccccc1,-18.3%
17,COc1ccc(OC)c(C2C(C(=O)Nc3ccc(F)cc3)=C(C)Nc3nc(CCCO)nn32)c1 (centres unmarked),1.03%
18,O=C(CCn1c(=S)oc2ccccc21)NC1CCCCC1,11.5%
19,Cc1cc(C)c(S(C)(=O)=O)c(S(=O)(=O)c2ccc(Cl)cc2)n1,-12.3%

row,SMILES,"hERG current change (%, negative = inhibition) at 10uM"
1,COc1ccc(Cl)cc1NC(=O)C/C(C)=N/NC(=O)COc1ccc(C)cc1,-29.9%
2,COc1ccccc1CC(=O)Nc1ccc2c(C)cc(=O)oc2c1,-0.223%
3,COc1ccccc1-n1c2nc3ccccc3nc2c2c(=O)n(-c3cc(C)cc(C)c3)cnc21,-14.8%
4,COc1ccc(N2CCN(C(=O)CCc3nnc4ccc(N5CCCC5)nn34)CC2)cc1,-7.68%
5,COCCn1c(CN2CCc3ccccc3C2)nc2c1c(=O)n(C)c(=O)n2C,-11.5%
6,COc1ccc2oc(C(=O)Nc3ccccc3N3CCOCC3)c(C)c2c1,11.2%
7,NC(=O)CN1CCN(c2cccc(Cl)c2)CC1,0.166%
8,COc1ccc(C(=O)OCC(=O)N2CCCCCC2)cc1S(=O)(=O)N1CCOCC1,-11.6%
9,CCOC(=O)c1c(NC(=O)CSc2n[nH]c(CNc3ccccc3)n2)sc(C)c1C,2.35%
10,Cc1ccc(NC(=O)Cn2nnc(C(=O)Nc3ccc(C)c(C)c3)c2N)cc1,-6.32%
11,O=C(c1cccc(F)c1)N1CCN(C(=O)c2cc3ncc(Br)cn3n2)CC1,9.84%
12,O=C(Nc1ccccc1)C1CC(=O)N(C2CCCCC2)C1 (centres unmarked),3.91%
13,Cn1c(-c2ccccc2)cccc1=O,-0.353%
14,COC(=O)c1ccc(COC(=O)c2c(C)nn(Cc3ccccc3Cl)c2Cl)o1,10.9%
15,CC(C)Cc1nc2sc3c(c2c(=O)n1N)CC(C(C)C)OC3 (centres unmarked),9.24%
16,O=C(NCC1CCCO1)/C(=C\c1ccc(Cl)cc1)NC(=O)c1ccccc1 (centres unmarked),-12.1%
17,Cc1cc(NS(=O)(=O)c2ccc3c(c2)OCCO3)no1,1.49%
18,COc1ccc([N+](=O)[O-])cc1N(CC1CO1)S(=O)(=O)c1ccc(C)cc1 (centres unmarked),4.42%
